Assay results published in the supplement of paper PMC3334620.
In all, about 33,000 sequences were measured (“E-score (-0.5 to 0.5)”: median about -0.043, highest 2% from about 0.37 on). The list shows a part of the results.

The sequences below were run against T1, Upc2 (UniProt Q12151) (assay: PBM E-score (8-mer binding enrichment) (E-score (-0.5 to 0.5)); higher = stronger / more preferred TF binding; most listed sequences are background and not binding sites). Details: protein concentration: 200 nM; construct: GST-full length.
T1 sequence: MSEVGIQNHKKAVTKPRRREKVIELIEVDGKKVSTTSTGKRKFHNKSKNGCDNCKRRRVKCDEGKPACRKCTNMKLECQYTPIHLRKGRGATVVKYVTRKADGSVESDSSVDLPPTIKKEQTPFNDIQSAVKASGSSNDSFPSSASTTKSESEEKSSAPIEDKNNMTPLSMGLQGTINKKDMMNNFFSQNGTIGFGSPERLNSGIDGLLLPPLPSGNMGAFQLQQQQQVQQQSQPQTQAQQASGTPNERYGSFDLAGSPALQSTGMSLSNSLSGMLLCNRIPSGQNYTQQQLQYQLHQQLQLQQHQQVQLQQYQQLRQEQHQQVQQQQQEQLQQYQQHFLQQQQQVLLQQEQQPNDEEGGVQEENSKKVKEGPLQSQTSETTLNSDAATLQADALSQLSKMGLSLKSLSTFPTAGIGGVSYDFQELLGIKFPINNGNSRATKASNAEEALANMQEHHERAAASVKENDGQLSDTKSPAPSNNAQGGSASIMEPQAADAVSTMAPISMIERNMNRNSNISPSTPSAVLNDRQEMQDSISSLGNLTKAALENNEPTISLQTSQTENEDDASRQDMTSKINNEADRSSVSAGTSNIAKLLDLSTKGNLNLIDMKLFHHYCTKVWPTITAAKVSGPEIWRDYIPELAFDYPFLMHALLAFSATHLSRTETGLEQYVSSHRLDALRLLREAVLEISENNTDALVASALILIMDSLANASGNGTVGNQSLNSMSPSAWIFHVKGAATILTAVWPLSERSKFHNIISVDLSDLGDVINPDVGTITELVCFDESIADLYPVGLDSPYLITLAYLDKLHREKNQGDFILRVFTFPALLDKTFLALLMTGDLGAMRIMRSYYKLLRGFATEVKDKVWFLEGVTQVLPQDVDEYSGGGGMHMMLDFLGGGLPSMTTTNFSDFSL
How it was run: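 The E-score, a modified Wilcoxon-Mann-Whitney statistic, was computed by the Universal PBM Analysis Suite for every ungapped eight-base word pooled with its reverse complement. Scans behind it were normalised with masliner after bound GST-tagged yeast transcription factors were detected with fluorescent anti-GST. The proteins, at about 100-200 nM, had been applied to universal all-10-mer Agilent arrays made double-stranded by primer extension.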

Sequence	PBM E-score
GTGGCAAC	-0.113
GAGATTGC	-0.163
AGCGTAGC	0.16
GAGTATTA	-0.0722
AATAGCGG	-0.0471
CCTTCGTC	0.00619
CTCCGCCC	-0.316
GCAGAGTA	0.0783
CAAACGGC	0.32
ATTGAAGG	-0.152
CCTGTGAC	-0.255
AAGCTGAC	-0.124
CCGGCATC	-0.183
AAATGCCG	0.0855
CCGAACCA	-0.127
TCGGAGCA	-0.156
AGCCCGCA	-0.231
ACCTGAGA	-0.081
CCCTCTAC	-0.0506
AATGATTC	0.096
ACCGACCC	0.114
GAGCCCGA	-0.0298
ACCGCAGT	-0.0959
AAAAGGAC	0.0288
AACCACTG	-0.132

Sequence	PBM E-score
CTTACAAG	-0.132
AAATTTGA	0.14
ACATACCT	-0.261
GCGATTCC	-0.06
GTACTGAC	0.0353
CGATCTTC	0.11
AACTACGG	-0.0928
CCCCGTTA	0.0309
AACGCTCT	-0.0502
AGGAGGTC	-0.226
CAGCCCAG	-0.241
CGGATCCG	0.128
GGCCCTAA	-0.205
TATAGGGA	0.0831
CAGAGTCA	-0.175
TATTCCCA	-0.0702
AGATGGTC	-0.225
GAGACTAA	0.0507
CGGGCAGC	-0.0543
CACCCGCG	-0.107
AGCCGTTA	0.171
GCGGGTCA	-0.0247
CTAGTCAG	-0.0433
GCCGCGGA	-0.169
GCAGCCGC	-0.122

Sequence	PBM E-score
CTAAATTA	0.0394
GGTCGCCA	-0.188
GCTTGGAC	-0.259
AGTAGCGC	0.0189
AAAACTTG	0.00797
CACGGGAC	-0.074
GCCCAAGC	-0.184
AATGCGAC	0.214
CTCCCTTA	-0.197
CCCATGTC	-0.212
CCATCCTA	0.108
CGGGCCAC	-0.201
TAGAATCA	0.0403
ATTAACCC	-0.00395
ACTAGTGA	-0.178
CTAAGCAC	-0.145
GACTAGGC	0.0484
CCCAATGA	-0.32
AAGGTGCT	-0.233
TCGAAAGA	-0.0485
GGATCTAC	-0.211
ATACAAGA	-0.0788
AACTGACC	-0.252
CGATGTAA	0.211
CTCCATCC	-0.183

Sequence	PBM E-score
GGTATGGA	-0.146
AACAACCA	0.0154
ACGCGTAG	0.148
CATCACGG	0.0314
AATTGGTG	0.0032
GCGTCCAC	-0.206
ACGGCGTC	0.0942
CGTATAAC	0.478
GCTTAAAA	0.11
CATTTCCA	-0.0799
ATACTGCC	-0.0146
AATGAGCG	0.0444
CGATATCC	0.137
ATAGCTTG	-0.0163
ACGCTGAT	0.0974
AACCGGCT	-0.239
GTAAAATA	0.167
CAGTGTCC	-0.141
CCACCTTA	-0.122
GTCAGGAA	-0.0731
CGGCGGTC	-0.0804
CCTCACTC	-0.019
AGGCTAAC	0.00166
GTGTTGTA	0.128
CAACACCC	-0.159

Sequence	PBM E-score
CTCGCCCC	-0.0354
TAGTAAGA	-0.0981
ATAATAAG	0.0827
CGCGGGAA	0.0521
GTGAGTTA	-0.184
AGTGATGA	-0.158
CTCGCAAG	0.124
AGTATTAA	0.00356
CAACTGAA	-0.00109
ATGGGGCA	-0.196
GGAGATCA	-0.136
ACCCAGGC	-0.118
CCGCCGAA	-0.137
AACAAGTC	-0.109
AAGACATA	-0.0365
CTCGGGGA	-0.177
CTCCAGAA	-0.0763
ACATCTAT	0.119
GGACATAA	-0.0984
AGCACCCC	-0.205
CGAGTTGA	0.117
GCACGGAA	-0.15
GCGCATCA	-0.183
AAAAGGGC	-0.27
AGGTAGAA	-0.0771

Sequence	PBM E-score
CAGCTTAC	0.114
ATCGTACC	0.455
AAGTCCAA	-0.163
CACGCAAA	-0.0775
AATTTCCA	-0.107
GGTAGGCA	-0.25
AAAGGTGC	-0.153
GGGACTAA	-0.183
AGCTGCTC	-0.149
AACGACCA	0.405
GGGGGCTA	-0.227
AGAACTGG	-0.144
GGAGGACA	-0.0797
ATGCTTCA	-0.133
AATGGCAT	0.145
AATACTGA	0.0641
AAGCGACC	0.252
TACAGGGA	-0.0298
CGTCGGAC	0.0134
TAAGACCA	-0.148
ACATACGG	0.354
CTCCACCA	-0.177
GGTCTAAA	-0.0209
ACTTTCTA	-0.195
GAAACAAC	0.00532

Sequence	PBM E-score
CGAGCTGC	0.144
GGACCAGA	-0.17
CCGCTGGC	-0.258
GAAACACC	0.0158
CATAAGGG	-0.156
GCCCACTA	-0.139
AGCCTATA	-0.018
AGTCCCCG	-0.0847
AATTGATC	0.0229
AGTGAGAT	-0.149
CCCTTGCG	-0.179
ATGCGTAA	0.231
TATACCCA	-0.0138
CGCAAGTC	-0.155
AGTGTATC	0.12
AGGGTCGG	0.0904
AGAGCACT	0.00095
CGGGTATA	0.195
TAGTGAAA	-0.285
CGTACTAG	0.334
GGACCTTA	0.00047
CCCTAGGC	-0.3
